Our source for the enrichment score values is the supplement of paper PMC10369915.

The list shows a part of the results. Cut-off read from the data, not from the text of the source: active = 3.2 or more and inactive = the rest. Only a few entries rise above the background.
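Note: displayed peptides selected on beads carrying the immobilized SH2 domain, with library peptides lacking any tyrosine serving as negative controls.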

In the first experiment the target is SHP2 C-SH2 domain E139D. In words: enrichment score (SH2-bound / input frequency) (ratio); bacterial display of known human phosphotyrosine sites (pTyr-Var adds point mutants) read by sequencing; higher = stronger binding; tyrosines were phosphorylated by kinases first. The following applies: peptide library: Human pTyr.
Regarding KIQNTGDYADLAGGE [PTN11_HUMAN_62_YA], the enrichment score is inactive: 0.881.
On the same count and under the same terms, the value for ADNDITPYLVSRFAR [PRP4B_HUMAN_849_YA] was inactive: 1.02; that for SGDFYDLYGGEKFAT [PTN6_HUMAN_64] was inactive: 0.7.
In the case of FAKGAEDYLQSPLQP [PRMT5_HUMAN_307_YA], the enrichment score is inactive: 0.531.
As to GGAVAQGYVPHNYLA [PTK6_HUMAN_61], the enrichment score was inactive: 0.607.
With GFDLDLTYIAPNIIA [PTEN_HUMAN_27_YA], the enrichment score was inactive: 1.54.
The same measure, in the same setting: the value for SKHKEDVYENLHTKN [PTN6_HUMAN_564] was inactive: 1.23; that for DVANSEAYHFRQAWV [PTK7_HUMAN_961_YA] was inactive: 0.748; that for DVQKSKEYFSKQKGG [PRDX1_HUMAN_194] was inactive: 1.31.
As for GFDLDLTYIYPNIIA [PTEN_HUMAN_27], the enrichment score was inactive: 1.5.
Consider GHAMADTYAVVQKRG [PTPN18_HUMAN_354], for which the enrichment score is inactive: 0.959.
Regarding YKCDPAGYYCGFKAT [PSA6_HUMAN_159], the enrichment score is inactive: 1.79.
Turning to EDPVTVEYITRYIAS [PSMA7_HUMAN_106], the enrichment score is inactive: 0.907.
As for FTPDHVVYARSKTAV [PTRF_HUMAN_308], the enrichment score was inactive: 0.669.
On to AELFAKGYEDALQSP [PRMT5_HUMAN_304_YA], for which the enrichment score was inactive: 0.355.
Same read-out and setting: the value for MVSTFEQYQFLADVI [PTPRC_HUMAN_1216_YA] was inactive: 1.15; that for AKCDPAGYACGFKAT [PSA6_HUMAN_159_YA] was inactive: 1.04.
On to MLGASGDYADFQALK [PSB4_HUMAN_102_YA], for which the enrichment score was inactive: 0.433.

In another experiment the target is SHP2 C-SH2 domain wild-type. The description is as above. The following applies: peptide library: Human pTyr.
As to KIQNTGDYADLAGGE [PTN11_HUMAN_62_YA], the enrichment score was inactive: 0.673.
Regarding ADNDITPYLVSRFAR [PRP4B_HUMAN_849_YA], the enrichment score was inactive: 0.854.
Take SGDFYDLYGGEKFAT [PTN6_HUMAN_64]: the enrichment score is inactive: 0.651.
Regarding FAKGAEDYLQSPLQP [PRMT5_HUMAN_307_YA], the enrichment score was inactive: 0.519.
Turning to GGAVAQGYVPHNYLA [PTK6_HUMAN_61], the enrichment score is inactive: 0.509.
For the molecule GFDLDLTYIAPNIIA [PTEN_HUMAN_27_YA], the enrichment score is inactive: 1.13.
Take SKHKEDVYENLHTKN [PTN6_HUMAN_564]: the enrichment score is inactive: 1.27.
The same measure, in the same setting: the value for DVANSEAYHFRQAWV [PTK7_HUMAN_961_YA] was inactive: 0.692; that for DVQKSKEYFSKQKGG [PRDX1_HUMAN_194] was inactive: 1.1.
Take GFDLDLTYIYPNIIA [PTEN_HUMAN_27]: the enrichment score is inactive: 1.55.
The same measure, in the same setting: the value for GHAMADTYAVVQKRG [PTPN18_HUMAN_354] was inactive: 1; that for YKCDPAGYYCGFKAT [PSA6_HUMAN_159] was inactive: 1.91.
For EDPVTVEYITRYIAS [PSMA7_HUMAN_106], the enrichment score was inactive: 0.706.
In the case of FTPDHVVYARSKTAV [PTRF_HUMAN_308], the enrichment score was inactive: 0.726.
On to AELFAKGYEDALQSP [PRMT5_HUMAN_304_YA], for which the enrichment score was inactive: 0.548.
MVSTFEQYQFLADVI [PTPRC_HUMAN_1216_YA]: the enrichment score was inactive: 1.11.
AKCDPAGYACGFKAT [PSA6_HUMAN_159_YA]: the enrichment score is inactive: 0.937.
Take MLGASGDYADFQALK [PSB4_HUMAN_102_YA]: the enrichment score was inactive: 0.459.

The target of another experiment is SHP2 N-SH2 domain L43F. The description is as above. The following applies: peptide library: Human pTyr.
As to KIQNTGDYADLAGGE [PTN11_HUMAN_62_YA], the enrichment score is inactive: 0.768.
Still for that read-out and setting: the value for ADNDITPYLVSRFAR [PRP4B_HUMAN_849_YA] was inactive: 0.825; that for SGDFYDLYGGEKFAT [PTN6_HUMAN_64] was inactive: 0.657.
FAKGAEDYLQSPLQP [PRMT5_HUMAN_307_YA]: the enrichment score was inactive: 0.701.
With GGAVAQGYVPHNYLA [PTK6_HUMAN_61], the enrichment score was inactive: 0.536.
As for GFDLDLTYIAPNIIA [PTEN_HUMAN_27_YA], the enrichment score was inactive: 1.04.
Still for that read-out and setting: the value for SKHKEDVYENLHTKN [PTN6_HUMAN_564] was inactive: 1.1.
With DVANSEAYHFRQAWV [PTK7_HUMAN_961_YA], the enrichment score is inactive: 0.736.
The same measure, in the same setting: the value for DVQKSKEYFSKQKGG [PRDX1_HUMAN_194] was inactive: 1.05; that for GFDLDLTYIYPNIIA [PTEN_HUMAN_27] was inactive: 1.31; that for GHAMADTYAVVQKRG [PTPN18_HUMAN_354] was inactive: 0.9.
On to YKCDPAGYYCGFKAT [PSA6_HUMAN_159], for which the enrichment score was inactive: 1.71.
Turning to EDPVTVEYITRYIAS [PSMA7_HUMAN_106], the enrichment score was inactive: 0.877.
As for FTPDHVVYARSKTAV [PTRF_HUMAN_308], the enrichment score is inactive: 0.876.
Take AELFAKGYEDALQSP [PRMT5_HUMAN_304_YA]: the enrichment score is inactive: 0.443.
With MVSTFEQYQFLADVI [PTPRC_HUMAN_1216_YA], the enrichment score is inactive: 1.1.
For AKCDPAGYACGFKAT [PSA6_HUMAN_159_YA], the enrichment score was inactive: 0.698.
Take MLGASGDYADFQALK [PSB4_HUMAN_102_YA]: the enrichment score is inactive: 0.596.

In the next experiment the target is SHP2 N-SH2 domain T42A. The description is as above. The settings on record: peptide library: Human pTyr.
As for KIQNTGDYADLAGGE [PTN11_HUMAN_62_YA], the enrichment score is inactive: 0.664.
Take ADNDITPYLVSRFAR [PRP4B_HUMAN_849_YA]: the enrichment score was inactive: 0.681.
For the molecule SGDFYDLYGGEKFAT [PTN6_HUMAN_64], the enrichment score is inactive: 0.756.
Consider FAKGAEDYLQSPLQP [PRMT5_HUMAN_307_YA], for which the enrichment score is inactive: 0.524.
Take GGAVAQGYVPHNYLA [PTK6_HUMAN_61]: the enrichment score is inactive: 0.505.
The same measure, in the same setting: the value for GFDLDLTYIAPNIIA [PTEN_HUMAN_27_YA] was inactive: 1.31.
SKHKEDVYENLHTKN [PTN6_HUMAN_564]: the enrichment score is inactive: 1.06.
Consider DVANSEAYHFRQAWV [PTK7_HUMAN_961_YA], for which the enrichment score was inactive: 0.786.
Still for that read-out and setting: the value for DVQKSKEYFSKQKGG [PRDX1_HUMAN_194] was inactive: 1.04; that for GFDLDLTYIYPNIIA [PTEN_HUMAN_27] was inactive: 1.41.
GHAMADTYAVVQKRG [PTPN18_HUMAN_354]: the enrichment score is inactive: 0.89.
Turning to YKCDPAGYYCGFKAT [PSA6_HUMAN_159], the enrichment score is inactive: 1.84.
As for EDPVTVEYITRYIAS [PSMA7_HUMAN_106], the enrichment score was inactive: 0.754.
Consider FTPDHVVYARSKTAV [PTRF_HUMAN_308], for which the enrichment score was inactive: 0.584.
Consider AELFAKGYEDALQSP [PRMT5_HUMAN_304_YA], for which the enrichment score was inactive: 0.843.
The same measure, in the same setting: the value for MVSTFEQYQFLADVI [PTPRC_HUMAN_1216_YA] was inactive: 1.03; that for AKCDPAGYACGFKAT [PSA6_HUMAN_159_YA] was inactive: 0.839; that for MLGASGDYADFQALK [PSB4_HUMAN_102_YA] was inactive: 0.577.

For the next experiment, the target named is SHP2 N-SH2 domain T52S. The description is as above. The settings on record: peptide library: Human pTyr.
For KIQNTGDYADLAGGE [PTN11_HUMAN_62_YA], the enrichment score is inactive: 0.823.
With ADNDITPYLVSRFAR [PRP4B_HUMAN_849_YA], the enrichment score was inactive: 0.803.
In the case of SGDFYDLYGGEKFAT [PTN6_HUMAN_64], the enrichment score was inactive: 0.528.
Regarding FAKGAEDYLQSPLQP [PRMT5_HUMAN_307_YA], the enrichment score was inactive: 0.493.
With GGAVAQGYVPHNYLA [PTK6_HUMAN_61], the enrichment score is inactive: 0.504.
Turning to GFDLDLTYIAPNIIA [PTEN_HUMAN_27_YA], the enrichment score was inactive: 1.23.
For SKHKEDVYENLHTKN [PTN6_HUMAN_564], the enrichment score is inactive: 1.2.
For the molecule DVANSEAYHFRQAWV [PTK7_HUMAN_961_YA], the enrichment score was inactive: 0.566.
As for DVQKSKEYFSKQKGG [PRDX1_HUMAN_194], the enrichment score was inactive: 1.16.
With GFDLDLTYIYPNIIA [PTEN_HUMAN_27], the enrichment score is inactive: 1.38.
As to GHAMADTYAVVQKRG [PTPN18_HUMAN_354], the enrichment score is inactive: 0.982.
YKCDPAGYYCGFKAT [PSA6_HUMAN_159]: the enrichment score was inactive: 2.35.
Take EDPVTVEYITRYIAS [PSMA7_HUMAN_106]: the enrichment score is inactive: 0.567.
Consider FTPDHVVYARSKTAV [PTRF_HUMAN_308], for which the enrichment score is inactive: 0.595.
On the same count and under the same terms, the value for AELFAKGYEDALQSP [PRMT5_HUMAN_304_YA] was inactive: 0.761; that for MVSTFEQYQFLADVI [PTPRC_HUMAN_1216_YA] was inactive: 1.04.
Take AKCDPAGYACGFKAT [PSA6_HUMAN_159_YA]: the enrichment score was inactive: 1.14.
MLGASGDYADFQALK [PSB4_HUMAN_102_YA]: the enrichment score is inactive: 1.33.

The next experiment concerns the target SHP2 N-SH2 domain wild-type. Described as above. The following applies: peptide library: Human pTyr.
Consider KIQNTGDYADLAGGE [PTN11_HUMAN_62_YA], for which the enrichment score is inactive: 0.887.
As to ADNDITPYLVSRFAR [PRP4B_HUMAN_849_YA], the enrichment score is inactive: 0.611.
On the same count and under the same terms, the value for SGDFYDLYGGEKFAT [PTN6_HUMAN_64] was inactive: 0.712; that for FAKGAEDYLQSPLQP [PRMT5_HUMAN_307_YA] was inactive: 0.621.
As to GGAVAQGYVPHNYLA [PTK6_HUMAN_61], the enrichment score was inactive: 0.55.
For GFDLDLTYIAPNIIA [PTEN_HUMAN_27_YA], the enrichment score was inactive: 1.24.
For the molecule SKHKEDVYENLHTKN [PTN6_HUMAN_564], the enrichment score is inactive: 1.15.
Consider DVANSEAYHFRQAWV [PTK7_HUMAN_961_YA], for which the enrichment score is inactive: 0.652.
Regarding DVQKSKEYFSKQKGG [PRDX1_HUMAN_194], the enrichment score was inactive: 1.28.
GFDLDLTYIYPNIIA [PTEN_HUMAN_27]: the enrichment score was inactive: 1.74.
GHAMADTYAVVQKRG [PTPN18_HUMAN_354]: the enrichment score is inactive: 0.893.
As for YKCDPAGYYCGFKAT [PSA6_HUMAN_159], the enrichment score was inactive: 2.12.
Regarding EDPVTVEYITRYIAS [PSMA7_HUMAN_106], the enrichment score is inactive: 0.842.
On to FTPDHVVYARSKTAV [PTRF_HUMAN_308], for which the enrichment score was inactive: 0.73.
For the molecule AELFAKGYEDALQSP [PRMT5_HUMAN_304_YA], the enrichment score was inactive: 0.384.
Consider MVSTFEQYQFLADVI [PTPRC_HUMAN_1216_YA], for which the enrichment score is inactive: 1.27.
Turning to AKCDPAGYACGFKAT [PSA6_HUMAN_159_YA], the enrichment score was inactive: 1.06.
Regarding MLGASGDYADFQALK [PSB4_HUMAN_102_YA], the enrichment score is inactive: 0.496.
